Experimental data: publication PMC6919601, “Identification of Plasmodium dipeptidyl aminopeptidase allosteric inhibitors by high throughput screening” (PLoS ONE, 2019)
About 230 (0.21%) of roughly 110,000 compounds showed an effect of 50% or more. The list shows a part of the results.

biological target: DPAP1 (Plasmodium falciparum, UniProt Q8IIJ9); assay: primary screen, percent inhibition; read by cleavage of a fluorogenic dipeptide substrate; higher = more effect of the substance; set-up: species or system P. falciparum D10 trophozoite lysates; single well
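Also: 30 min substrate incubation versus DMSO and 10 µM JCP410 controls.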

DPAP1, sequence (Q8IIJ9 whole entry, looked up): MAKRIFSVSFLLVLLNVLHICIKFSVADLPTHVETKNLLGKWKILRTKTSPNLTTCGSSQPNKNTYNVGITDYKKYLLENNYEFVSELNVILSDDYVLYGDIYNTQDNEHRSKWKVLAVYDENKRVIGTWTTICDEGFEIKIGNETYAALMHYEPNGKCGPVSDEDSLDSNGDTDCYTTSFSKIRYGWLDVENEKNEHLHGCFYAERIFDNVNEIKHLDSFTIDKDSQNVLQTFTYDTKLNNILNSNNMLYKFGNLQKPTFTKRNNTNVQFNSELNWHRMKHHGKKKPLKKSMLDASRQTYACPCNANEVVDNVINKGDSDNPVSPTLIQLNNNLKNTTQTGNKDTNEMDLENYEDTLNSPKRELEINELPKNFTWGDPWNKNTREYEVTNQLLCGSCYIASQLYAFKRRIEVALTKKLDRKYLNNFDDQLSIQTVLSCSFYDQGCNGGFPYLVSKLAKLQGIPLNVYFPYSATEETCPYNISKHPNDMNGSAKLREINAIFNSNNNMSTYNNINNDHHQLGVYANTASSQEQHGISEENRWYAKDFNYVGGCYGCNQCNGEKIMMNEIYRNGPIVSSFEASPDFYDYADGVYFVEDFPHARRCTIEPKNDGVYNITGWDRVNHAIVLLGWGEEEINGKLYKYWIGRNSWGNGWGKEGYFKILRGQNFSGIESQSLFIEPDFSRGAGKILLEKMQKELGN

SMILES | % Inhibition @ 10 uM
CC(c1ccccc1)c1nnc(N)s1 (stereo not drawn) | 3.25%
COc1ccc(C2(C)N(O)C(C)C(c3cccs3)=[N+]2[O-])cc1 (stereo not drawn) | -3.41%
CCCCC(=O)Nc1nonc1-c1ccc(OCC)cc1 | 3.84%
COc1ccc(OCC(O)CN2CCCCCC2)cc1 (stereo not drawn) | 2.44%
COc1ccc(-c2noc(N3CCC(C(=O)N4CCN(C(=O)c5ccco5)CC4)CC3)n2)cc1 | -3.1%
CC(=O)Nc1noc2ccccc12 | 3.57%
COc1ccc(C2CC(=O)N=C(NC(=O)c3cccc(Cl)c3)N2)c(OC)c1OC (stereo not drawn) | 0.723%
CCOc1ccc(CC(=O)Nc2ccc(N(C)C(C)=O)cc2)cc1OCC | 1.28%
CN1C(=O)c2ccc(NC(=O)c3ccc(OCc4ccccc4)cc3)cc2C1=O | -0.0619%
Cc1ccc(N2C(=O)CC(N(C)Cc3ccccc3)C2=O)c(C)c1 (stereo not drawn) | -5.69%
CN1CCCN(C2C3CC4CC(C3)CC2C4)CC1 (stereo not drawn) | 3.19%
O=C(/C=C/c1ccccc1)N1CCN(c2ccc(F)cc2)CC1 | 5.12%
CC(C(=O)NCc1ccc2c(c1)OCO2)n1ncn2cccc2c1=O (stereo not drawn) | -3.43%
COc1ccccc1/C=C(\C#N)C(=O)NCc1cccnc1 | 14.8%
CCn1ncc(CN(C)S(=O)(=O)c2cc(Cl)ccc2Cl)c1C | -5.44%
O=C(O)Cn1cc(/C=C2\C(=O)NC(=O)N(Cc3ccco3)C2=O)c2ccccc21 | 3.52%
CCOC(=O)c1cc(COC(=O)CC)oc1C | -0.736%
CCOC(=O)C1CCCCN1Cc1ccc(C(F)(F)F)cc1 (stereo not drawn) | -0.127%
COc1ccccc1C1CC(=O)NC(C)=C1C(=O)OCc1ccc(C)cc1 (stereo not drawn) | -1%
CS(=O)(=O)N1CCC(Cc2ccccc2)CC1 | 4.9%
COc1ccc(C(=O)N2CCN(C3CCC(c4ccccc4)CC3)CC2)cc1 (stereo not drawn) | 0.611%
CCOc1cc(C2C(C#N)=C(N)Oc3[nH]nc(-c4cc(OC)ccc4OC)c32)ccc1O (stereo not drawn) | 6.29%
N#CCNC(=O)[C@H](Cc1ccc(Cl)c(Cl)c1)NC(=O)OCc1ccccc1 | -1.82%
CCN(CC)CCCNC(=O)c1sc2ncn(CC(=O)N3CC(C)CC(C)C3)c(=O)c2c1C (stereo not drawn) | 8.71%
CC1CCN(C(=O)Cn2nnc3sc4c(c3c2=O)CCC(C)C4)CC1 (stereo not drawn) | 3.87%
CCc1ccc(-c2nc(CSCC(=O)N3CCN(Cc4ccccc4)CC3)c(C)o2)cc1 | -1.27%

SMILES | % Inhibition @ 10 uM
CCCCOc1ccc(NC(=O)NC2(c3ccccc3)CC2)cc1 | -5.67%
Cc1cc(C)nc(SCCn2c(N3CCOCC3)nc3c2c(=O)n(C)c(=O)n3C)n1 | -0.946%
O=C1NC(c2cccc3ccccc23)Nc2sc3c(c21)CCCC3 (stereo not drawn) | 6.4%
COc1ccc(C2C(C#N)=C(N)Oc3c2sc2ccccc32)cc1OC (stereo not drawn) | 2.44%
CCOC(=O)N1CCN(c2c(N3CCN(CC)CC3)c(=O)c2=O)CC1 | 1.93%
CCOC(=O)C1CCN(Cc2c(Cl)cccc2Cl)CC1 | -2.34%
CCC(Sc1nc2ccccc2c2nc(CCn3cncc3C)nn12)C(=O)NCc1ccc(C)cc1 (stereo not drawn) | 3.05%
O=C(NCc1ccco1)Nc1cccc2ccccc12 | -5.51%
COc1ccc(/C=C2\SC(=O)N(CC(=O)Nc3ccccc3F)C2=O)cc1OC | -3.43%
O=C(CCc1nnc2n(Cc3ccccc3)c(=O)c3ccccc3n12)NCc1ccco1 | -2.42%
CCCSc1nnc2c(n1)OC(C)Nc1ccccc1-2 (stereo not drawn) | -7.12%
C=C(C)CC1(NC(C)c2ccccc2)CCCCC1 (stereo not drawn) | 3.16%
CC1CCc2c(C(=O)NCc3ccco3)csc2C1 (stereo not drawn) | 3.54%
Cc1cc2c(n1-c1ccc(C(=O)N3CCC4(CC3)OCCO4)cc1)CCC(C)C2 (stereo not drawn) | -5.88%
COC(=O)CCS(=O)(=O)c1ccc(C)cc1 | 4.82%
O=C(c1cnn2c1NC(c1ccccc1)CC2C(F)(F)F)N1CCN(Cc2ccccc2)CC1 (stereo not drawn) | 2.23%
O=C(COCc1cc(-c2ccc(F)cc2)on1)NCC1CCCO1 (stereo not drawn) | 0.44%
COc1cc2nc(NCCC(C)C)n3nc(-c4cccnc4)nc3c2cc1OC | -0.905%
CCC1CCC(N(CC)CCN(CC)CC)CC1 (stereo not drawn) | -4.04%
COc1ccc(-c2cc(C(=O)N3CCN(C)CC3)no2)cc1 | 0.723%
CC(C)C[C@H](N[C@H](C(=O)N1CCOCC1)c1ccc(-c2ccc(S(C)(=O)=O)cc2)cc1)C(=O)NCC#N | -6.46%
CCN(CCCNC(=O)C1CCCN(c2ncnc3c2nc2n3CCCCC2)C1)Cc1ccccc1 (stereo not drawn) | 2.1%
O=C(O)c1cc(-c2ccco2)nc2ccccc12 | 4.75%
CCOC(=O)N1CCC(NC(=O)Nc2cn(C)c(=O)c3ccccc23)CC1 | -2.14%
COc1ccc2c(c1)CCc1c(C(=O)Nc3cnn(Cc4ccccc4C)c3)noc1-2 | -0.591%
Cc1ccc(CNC(=O)NC(C)c2c(-n3cccc3)sc3c2CCN(C)C3)cc1 (stereo not drawn) | -1.68%

SMILES | % Inhibition @ 10 uM
CCOc1ccc(C2C(C#N)=C(N)OC3=C2C(=O)CC(C)(C)C3)c(OCC)c1 (stereo not drawn) | -1.07%
CC(CCc1ccccc1)N(C)CCN(C)C (stereo not drawn) | -1.56%
COc1ccc(C2N(C(C)=O)CCCN2S(=O)(=O)c2ccc(C)cc2)cc1 (stereo not drawn) | -7.15%
C=CCOc1c(Br)cc(C2C(C#N)=C(N)OC3=C2C(=O)CC(C)(C)C3)cc1OC (stereo not drawn) | 0.722%
CC(CNC(=O)CCc1nnc2n(CCc3ccccc3)c(=O)c3ccccc3n12)c1ccccc1 (stereo not drawn) | 4.16%
O=C(O)c1cc2n(n1)C(C(F)(F)F)CC(c1ccc(F)cc1)N2 (stereo not drawn) | 4.61%
COc1cccc(C2=N/C(=C\c3ccc(C)o3)C(=O)O2)c1 | -2.78%
O=C(COc1ccccc1Cl)Nc1sc2c(c1C(=O)O)CCCC2 | 4.19%
Cc1cc(C)cc(NC(=O)c2ccc(Cn3nc(C)c(Cl)c3C)o2)c1 | -1.06%
Cc1ccc(S(=O)(=O)N(CC(=O)NC(C)C)c2ccccc2Cl)cc1 | -1.24%
Fc1ccccc1OCCOCCN1CCCC1 | -1.82%
CCc1ccc(C2CC(=O)N=C(N)N2)cc1 (stereo not drawn) | -3.3%
COc1ccc(CCNC(=O)c2cc3oc4ccccc4c3n2C)cc1OC | 3%
N#Cc1ccc(/C=C2/SC(=O)NC2=O)cc1 | 7.5%
CC(=O)CC(C)(C)S(=O)(=O)c1ccc(Cl)cc1 | -2.03%
Cc1ccc(NC(=O)CN2C(=O)N/C(=C/c3ccc(C)o3)C2=O)cc1 | -2.98%
CC1=C(C(=O)Nc2ccc(C)cn2)C(c2ccccc2)C2=C(O)CC(C)(C)CC2=N1 (stereo not drawn) | -2.87%
O=C(OCC(c1ccccc1)c1ccccc1)c1cccnc1 | -1.98%
COc1ccc(/C=C2\N=C(c3ccccc3C)OC2=O)c(OC)c1 | -2.6%
CCCNC(=O)CCc1c(C)nc2nc(-c3ccc(Cl)cc3Cl)nn2c1C | 4.14%
CCC(C(=O)NCc1ccccn1)n1ncn2c(cc3occc32)c1=O (stereo not drawn) | -5.63%
NC(=O)c1c(NC(=O)CN2CCOCC2)sc2c1CCCC2 | -3.92%
COc1cccc(C2NC(c3cccc(OC)c3O)C(C)C(=O)C2C)c1O (stereo not drawn) | 3.94%
Cc1cc(C)c2c(-n3cccc3)c(C(=O)NC3CCC(C)CC3)sc2n1 (stereo not drawn) | 0.623%
CCN(Cc1ccccc1)C(=O)c1cc2c(s1)-c1ccccc1S(=O)(=O)C2 | -2.67%
CCOCCCNC(=O)C1CCCN(S(=O)(=O)CC)C1 (stereo not drawn) | 3.24%

SMILES | % Inhibition @ 10 uM
COc1ccc(Cl)cc1NS(=O)(=O)c1ccc(Cl)cc1 | -3.04%
CN(C(=O)c1cc(F)c(Cl)nc1Cl)c1ccccc1 | 0.907%
CCn1c(=O)c2c(nc3n2CCN3c2ccccc2)n(C)c1=O | 6.47%
COc1ccc(/N=c2\scc(-c3ccc(OC)cc3F)n2CCO)cc1 | -4.39%
CN(CC(=O)Nc1ccccc1F)S(=O)(=O)c1cc(Cl)ccc1Cl | 2.6%
Cc1[nH]c2ccccc2c1CCNC(=O)CCC(=O)c1ccccc1 | -2.5%
O=C(c1cnn2ccccc12)N1CCN(C(c2ccccc2)c2ccccc2)CC1 | -3.14%
Cc1nn(CC(=O)NC2CCCc3ccccc32)c(=O)c2cccn12 (stereo not drawn) | 0.0811%
CCOC(=O)C(CN(C)C)Oc1ccc(Cl)cc1 (stereo not drawn) | -4.26%
COc1ccc(OC)c(C2=NOC(C(=O)NCc3ccco3)C2)c1 (stereo not drawn) | -6.03%
CC(O)c1nc2ccccc2n1Cc1cccc(Cl)c1 (stereo not drawn) | 1.12%
COc1ccc(C(=O)Nc2cc(C)c(O)c(S(=O)(=O)c3ccccc3)c2C)cc1 | -5.27%
c1ccc2cc3[nH]c(CN4CCCCC4)nc3cc2c1 | 2.45%
OC(c1ccccc1)c1nc2ccccc2[nH]1 (stereo not drawn) | 3.87%
CCOc1cccc(-n2cc(-c3ccccc3)nc2S)c1 | 42.6%
O=C1NC(c2ccccc2Cl)C(C(=O)c2ccccc2)C(O)(C(F)(F)F)N1 (stereo not drawn) | 4.61%
O=C1c2ccccc2C(=O)c2c(NC3CCCCC3)cccc21 | -4.21%
O=C(COc1ccc(Cl)cc1Br)N1CCc2ccccc21 | -3.26%
CCSC1=C(C#N)C(c2ccc(O)cc2)CC(=O)N1 (stereo not drawn) | 2.36%
CC1CCN(S(=O)(=O)c2ccc(NC(=O)CCc3ccccc3)cc2)CC1 | 5.29%
Nc1nc(NCc2ccc(F)cc2)nn1-c1ccccc1 | 0.13%
CC12CC3CC(C)(C1)CC(C(N)=O)(C3)C2 | 1.24%
COc1ccc(-c2csc3ncn(CC(=O)Nc4ccccc4Cl)c(=O)c23)cc1OC | -1.6%
Cc1ccc(NC(=O)c2cccc(C(=O)Nc3ccc(C)cn3)n2)nc1 | -1.82%
